The target of assay [1] is Flag-NAIP5 (mouse) (UniProt Q9R016). Briefly: co-IP.
The target is the same in assay [2]. Briefly: co-IP. This is another data set of the same source.

Chains of the proteins cited; added tags and fusions are not shown.
UniProt Q9R016: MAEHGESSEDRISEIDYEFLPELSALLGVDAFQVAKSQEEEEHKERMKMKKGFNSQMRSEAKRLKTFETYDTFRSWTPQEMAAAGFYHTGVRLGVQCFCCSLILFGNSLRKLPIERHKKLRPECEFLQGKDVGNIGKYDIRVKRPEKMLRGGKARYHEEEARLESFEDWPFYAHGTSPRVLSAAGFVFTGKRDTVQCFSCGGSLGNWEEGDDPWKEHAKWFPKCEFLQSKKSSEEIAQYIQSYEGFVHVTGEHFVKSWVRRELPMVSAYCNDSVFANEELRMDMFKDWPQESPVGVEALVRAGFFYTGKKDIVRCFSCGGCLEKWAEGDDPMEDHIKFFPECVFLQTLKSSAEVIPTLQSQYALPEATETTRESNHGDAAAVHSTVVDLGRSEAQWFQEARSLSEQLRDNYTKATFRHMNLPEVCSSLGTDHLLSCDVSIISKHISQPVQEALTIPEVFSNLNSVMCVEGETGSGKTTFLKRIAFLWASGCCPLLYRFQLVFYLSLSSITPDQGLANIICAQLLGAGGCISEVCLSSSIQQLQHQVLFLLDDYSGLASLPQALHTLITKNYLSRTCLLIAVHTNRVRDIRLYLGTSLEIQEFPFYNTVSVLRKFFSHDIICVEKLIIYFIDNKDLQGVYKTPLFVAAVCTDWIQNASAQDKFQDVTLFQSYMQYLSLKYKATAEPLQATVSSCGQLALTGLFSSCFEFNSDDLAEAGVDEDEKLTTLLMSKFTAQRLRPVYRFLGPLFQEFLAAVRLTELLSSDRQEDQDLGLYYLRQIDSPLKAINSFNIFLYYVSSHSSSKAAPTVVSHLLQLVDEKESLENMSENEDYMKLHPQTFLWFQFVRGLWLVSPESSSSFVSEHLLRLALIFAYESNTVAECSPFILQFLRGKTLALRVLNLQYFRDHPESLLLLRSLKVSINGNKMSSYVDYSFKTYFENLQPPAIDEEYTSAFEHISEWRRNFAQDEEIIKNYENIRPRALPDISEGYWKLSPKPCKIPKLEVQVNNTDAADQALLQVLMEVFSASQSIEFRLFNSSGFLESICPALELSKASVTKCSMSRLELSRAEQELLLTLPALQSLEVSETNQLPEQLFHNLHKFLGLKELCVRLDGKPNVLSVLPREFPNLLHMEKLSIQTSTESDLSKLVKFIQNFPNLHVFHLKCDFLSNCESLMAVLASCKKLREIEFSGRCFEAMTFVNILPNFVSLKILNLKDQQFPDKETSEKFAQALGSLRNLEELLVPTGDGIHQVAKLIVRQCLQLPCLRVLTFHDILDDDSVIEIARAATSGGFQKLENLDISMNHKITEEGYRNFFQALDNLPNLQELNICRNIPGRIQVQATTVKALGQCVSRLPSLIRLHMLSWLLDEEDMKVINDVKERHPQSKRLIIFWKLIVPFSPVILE

Where two headings read alike, the source gives them in different places. Results are given in words; binding and its absence hold for the method and conditions named. Binding seen in cells or lysates may run through a third protein. Some results given as binding are weak or reduced against the parent protein; the word gives no strength. For some of these results: Sequences can lack the tags named with a protein.

For “SF Q493K (from UniProt Q56086 1-506) (ligand)”, the binding result with Flag-NAIP5 (mouse) [1] is given as “binds”.
On the same count and under the same terms, next, “SF R479K (from UniProt Q56086 1-506) (ligand)”: “binds”; “flagellin of Salmonella typhi (SF) (from UniProt Q56086 1-506) (ligand)”: “binds”.
On the same count and under the same terms, for “SF N500Q (from UniProt Q56086 1-506) (ligand)” the value was “binds”; for “FliC2 flagellin from Yersinia enterocolitica (from UniProt A0ACH1C5V0 1-381) (ligand)”, “binds”.
Same read-out and setting: next, “SF R506Q (from UniProt Q56086 1-506) (ligand)”: “no binding”.

B1: FliC (type b) flagellin from Pseudomonas aeruginosa (ligand, UniProt P72151 1-488)
chain: MALTVNTNIASLNTQRNLNASSNDLNTSLQRLTTGYRINSAKDDAAGLQISNRLSNQISGLNVATRNANDGISLAQTAEGALQQSTNILQRIRDLALQSANGSNSDADRAALQKEVAAQQAELTRISDTTTFGGRKLLDGSFGTTSFQVGSNAYETIDISLQNASASAIGSYQVGSNGAGTVASVAGTATASGIASGTVNLVGGGQVKNIAIAAGDSAKAIAEKMDGAIPNLSARARTVFTADVSGVTGGSLNFDVTVGSNTVSLAGVTSTQDLADQLNSNSSKLGITASINDKGVLTITSATGENVKFGAQTGTATAGQVAVKVQGSDGKFEAAAKNVVAAGTAATTTIVTGYVQLNSPTAYSVSGTGTQASQVFGNASAAQKSSVASVDISTADGAQNAIAVVDNALAAIDAQRADLGAVQNRFKNTIDNLTNISENATNARSRIKDTDFAAETAALSKNQVLQQAGTAILAQANQLPQAVLSLLR
Turning to B1, the binding result in the assay with Flag-NAIP5 (mouse) [2] is reported as “binds”.

For the origin of these results see PMC5938239.
